{"source": "paper PMC12820563", "note": "The other results are listed elsewhere or left out. The list includes weakly bound sequences.", "data": [{"biological_target": "T1, MBP-FoxP3dN (UniProt Q99JB6)", "T1 sequence": "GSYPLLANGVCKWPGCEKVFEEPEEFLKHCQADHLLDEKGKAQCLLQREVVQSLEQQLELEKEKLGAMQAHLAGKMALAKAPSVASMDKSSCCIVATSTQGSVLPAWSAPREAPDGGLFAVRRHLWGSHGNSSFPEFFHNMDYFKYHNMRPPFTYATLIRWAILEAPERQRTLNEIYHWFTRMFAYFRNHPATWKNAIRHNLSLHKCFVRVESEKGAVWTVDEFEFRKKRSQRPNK", "assay": "PD-seq (MBP pull-down with sequencing)", "details": "20 mM Tris-HCl pH 7.5, 100 mM NaCl, 1.5 mM MgCl2, 0.4 uM protein, 0.1 uM dsDNA library, 30 min, room temperature, amylose pull-down; high values mean tight binding; double strand, one strand shown", "values": [{"sequence": "GATGATTGTTCTCCCAGCTGATGAATTTATAGTGTCGAGTAAACAAATTTTCCTAATCTTTCTGTTCAAGCGCCATCTAC", "binding signal (RPM ratio (pull-down/input))": 2.71}, {"sequence": "GATGATTGTTCTCCCAGCTGATGAATTGTCCCTTTCGAGTAAACAAATTTTCCTAATCTTTCTGTTCAAGCGCCATCTAC", "binding signal (RPM ratio (pull-down/input))": 0.459}, {"sequence": "GATGATTGTTCTCCCAGCTGATGAATTCAAAGCCTCGAGTAAACAAATTTTCCTAATCTTTCTGTTCAAGCGCCATCTAC", "binding signal (RPM ratio (pull-down/input))": 0.326}, {"sequence": "GATGATTGTTCTCCCAGCTGATGAATTCCTCGGATCGAGTAAACAAATTTTCCTAATCTTTCTGTTCAAGCGCCATCTAC", "binding signal (RPM ratio (pull-down/input))": 0.164}, {"sequence": "GATGATTGTTCTCCCAGCTGATGAATTCTCCGCTTCGAGTAAACAAATTTTCCTAATCTTTCTGTTCAAGCGCCATCTAC", "binding signal (RPM ratio (pull-down/input))": 0.26}, {"sequence": "GATGATTGTTCTCCCAGCTGATGAATTCCTGACATCGAGTAAACAAATTTTCCTAATCTTTCTGTTCAAGCGCCATCTAC", "binding signal (RPM ratio (pull-down/input))": 0.355}, {"sequence": "GATGATTGTTCTCCCAGCTGATGAATTGCCTATTTCGAGTAAACAAATTTTCCTAATCTTTCTGTTCAAGCGCCATCTAC", "binding signal (RPM ratio (pull-down/input))": 0.776}, {"sequence": "GATGATTGTTCTCCCAGCTGATGAATTCACCCTATCGAGTAAACAAATTTTCCTAATCTTTCTGTTCAAGCGCCATCTAC", "binding signal (RPM ratio (pull-down/input))": 0.294}, {"sequence": "GATGATTGTTCTCCCAGCTGATGAATTAGGATACTCGAGTAAACAAATTTTCCTAATCTTTCTGTTCAAGCGCCATCTAC", "binding signal (RPM ratio (pull-down/input))": 0.847}, {"sequence": "GATGATTGTTCTCCCAGCTGATGAATTGAATAGTTCGAGTAAACAAATTTTCCTAATCTTTCTGTTCAAGCGCCATCTAC", "binding signal (RPM ratio (pull-down/input))": 0.606}, {"sequence": "GATGATTGTTCTCCCAGCTGATGAATTAAAATCTTCGAGTAAACAAATTTTCCTAATCTTTCTGTTCAAGCGCCATCTAC", "binding signal (RPM ratio (pull-down/input))": 0.242}, {"sequence": "GATGATTGTTCTCCCAGCTGATGAATTCTTTTACTCGAGTAAACAAATTTTCCTAATCTTTCTGTTCAAGCGCCATCTAC", "binding signal (RPM ratio (pull-down/input))": 0.312}, {"sequence": "GATGATTGTTCTCCCAGCTGATGAATTACGGGTTTCGAGTAAACAAATTTTCCTAATCTTTCTGTTCAAGCGCCATCTAC", "binding signal (RPM ratio (pull-down/input))": 0.707}, {"sequence": "GATGATTGTTCTCCCAGCTGATGAATTAATGAGGTCGAGTAAACAAATTTTCCTAATCTTTCTGTTCAAGCGCCATCTAC", "binding signal (RPM ratio (pull-down/input))": 0.343}, {"sequence": "GATGATTGTTCTCCCAGCTGATGAATTCTGGTTCTCGAGTAAACAAATTTTCCTAATCTTTCTGTTCAAGCGCCATCTAC", "binding signal (RPM ratio (pull-down/input))": 0.744}, {"sequence": "GATGATTGTTCTCCCAGCTGATGAATTACCATCGTCGAGTAAACAAATTTTCCTAATCTTTCTGTTCAAGCGCCATCTAC", "binding signal (RPM ratio (pull-down/input))": 0.481}, {"sequence": "GATGATTGTTCTCCCAGCTGATGAATTGCGACTGTCGAGTAAACAAATTTTCCTAATCTTTCTGTTCAAGCGCCATCTAC", "binding signal (RPM ratio (pull-down/input))": 1.55}, {"sequence": "GATGATTGTTCTCCCAGCTGATGAATTGTAGGCTTCGAGTAAACAAATTTTCCTAATCTTTCTGTTCAAGCGCCATCTAC", "binding signal (RPM ratio (pull-down/input))": 0.516}, {"sequence": "GATGATTGTTCTCCCAGCTGATGAATTATCCTTGTCGAGTAAACAAATTTTCCTAATCTTTCTGTTCAAGCGCCATCTAC", "binding signal (RPM ratio (pull-down/input))": 0.279}, {"sequence": "GATGATTGTTCTCCCAGCTGATGAATTATAATTGTCGAGTAAACAAATTTTCCTAATCTTTCTGTTCAAGCGCCATCTAC", "binding signal (RPM ratio (pull-down/input))": 1.7}, {"sequence": "GATGATTGTTCTCCCAGCTGATGAATTCAAGCTGTCGAGTAAACAAATTTTCCTAATCTTTCTGTTCAAGCGCCATCTAC", "binding signal (RPM ratio (pull-down/input))": 0.499}, {"sequence": "GATGATTGTTCTCCCAGCTGATGAATTTTCACGGTCGAGTAAACAAATTTTCCTAATCTTTCTGTTCAAGCGCCATCTAC", "binding signal (RPM ratio (pull-down/input))": 0.19}, {"sequence": "GATGATTGTTCTCCCAGCTGATGAATTAGCCATATCGAGTAAACAAATTTTCCTAATCTTTCTGTTCAAGCGCCATCTAC", "binding signal (RPM ratio (pull-down/input))": 0.63}, {"sequence": "GATGATTGTTCTCCCAGCTGATGAATTTAGTACGTCGAGTAAACAAATTTTCCTAATCTTTCTGTTCAAGCGCCATCTAC", "binding signal (RPM ratio (pull-down/input))": 0.695}, {"sequence": "GATGATTGTTCTCCCAGCTGATGAATTCTACGTTTCGAGTAAACAAATTTTCCTAATCTTTCTGTTCAAGCGCCATCTAC", "binding signal (RPM ratio (pull-down/input))": 0.448}, {"sequence": "GATGATTGTTCTCCCAGCTGATGAATTCTAACATTCGAGTAAACAAATTTTCCTAATCTTTCTGTTCAAGCGCCATCTAC", "binding signal (RPM ratio (pull-down/input))": 0.754}, {"sequence": "GATGATTGTTCTCCCAGCTGATGAATTGGCGTCCTCGAGTAAACAAATTTTCCTAATCTTTCTGTTCAAGCGCCATCTAC", "binding signal (RPM ratio (pull-down/input))": 1.06}, {"sequence": "GATGATTGTTCTCCCAGCTGATGAATTATCCAACTCGAGTAAACAAATTTTCCTAATCTTTCTGTTCAAGCGCCATCTAC", "binding signal (RPM ratio (pull-down/input))": 0.246}, {"sequence": "GATGATTGTTCTCCCAGCTGATGAATTTCGCCTTTCGAGTAAACAAATTTTCCTAATCTTTCTGTTCAAGCGCCATCTAC", "binding signal (RPM ratio (pull-down/input))": 5.39}, {"sequence": "GATGATTGTTCTCCCAGCTGATGAATTAATCGGCTCGAGTAAACAAATTTTCCTAATCTTTCTGTTCAAGCGCCATCTAC", "binding signal (RPM ratio (pull-down/input))": 0.258}, {"sequence": "GATGATTGTTCTCCCAGCTGATGAATTCCACCCCTCGAGTAAACAAATTTTCCTAATCTTTCTGTTCAAGCGCCATCTAC", "binding signal (RPM ratio (pull-down/input))": 0.285}, {"sequence": "GATGATTGTTCTCCCAGCTGATGAATTGAAGTCCTCGAGTAAACAAATTTTCCTAATCTTTCTGTTCAAGCGCCATCTAC", "binding signal (RPM ratio (pull-down/input))": 0.299}, {"sequence": "GATGATTGTTCTCCCAGCTGATGAATTGTAAGGTTCGAGTAAACAAATTTTCCTAATCTTTCTGTTCAAGCGCCATCTAC", "binding signal (RPM ratio (pull-down/input))": 0.403}, {"sequence": "GATGATTGTTCTCCCAGCTGATGAATTCCGTAATTCGAGTAAACAAATTTTCCTAATCTTTCTGTTCAAGCGCCATCTAC", "binding signal (RPM ratio (pull-down/input))": 1.22}, {"sequence": "GATGATTGTTCTCCCAGCTGATGAATTACATACCTCGAGTAAACAAATTTTCCTAATCTTTCTGTTCAAGCGCCATCTAC", "binding signal (RPM ratio (pull-down/input))": 0.535}, {"sequence": "GATGATTGTTCTCCCAGCTGATGAATTCGCTCTTTCGAGTAAACAAATTTTCCTAATCTTTCTGTTCAAGCGCCATCTAC", "binding signal (RPM ratio (pull-down/input))": 0.33}, {"sequence": "GATGATTGTTCTCCCAGCTGATGAATTTTTTCAGTCGAGTAAACAAATTTTCCTAATCTTTCTGTTCAAGCGCCATCTAC", "binding signal (RPM ratio (pull-down/input))": 0.186}, {"sequence": "GATGATTGTTCTCCCAGCTGATGAATTGCAACTCTCGAGTAAACAAATTTTCCTAATCTTTCTGTTCAAGCGCCATCTAC", "binding signal (RPM ratio (pull-down/input))": 2.79}, {"sequence": "GATGATTGTTCTCCCAGCTGATGAATTTAGCGAATCGAGTAAACAAATTTTCCTAATCTTTCTGTTCAAGCGCCATCTAC", "binding signal (RPM ratio (pull-down/input))": 0.305}, {"sequence": "GATGATTGTTCTCCCAGCTGATGAATTTGAATATTCGAGTAAACAAATTTTCCTAATCTTTCTGTTCAAGCGCCATCTAC", "binding signal (RPM ratio (pull-down/input))": 0.866}]}]}
